Results from the supplement of paper PMC12355420.
Counter-ions that a name gives are not always drawn. Some of the results follow. Cut-off read from the data, not from the text of the source: active = 0.5 or less and inactive = the rest. Most values come without repeats; read them as rough.

Key:
Conditions in all cases: 50 µM; 24 h
[1] = system: HeLa VPS33A reporter cells; assay: relative cell viability (CellMask signal) vs DMSO (fraction of DMSO); higher = less cytotoxic;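 note: primary screen of an FDA-approved drug library in HeLa reporter cells in 96-well format, CellMask signal normalized to DMSO-treated wells set as 1, under 0.5 deemed highly cytotoxic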
[2] = system: HeLa VPS33A R498W KI + HA-SDC1-FLAG; assay: relative GAG core protein HA-SDC1 amount per cell number vs DMSO (fraction of DMSO); higher = more SDC1 (GAG core protein);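 note: HA-SDC1 level read out by In-Cell Western staining with an anti-HA antibody against the N-terminal tag, screening FDA-approved library drugs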
[3] = system: HeLa VPS33A KO + NLuc-VPS33A R498W; assay: relative mutant VPS33A R498W amount (NanoLuc luminescence) vs DMSO (fraction of DMSO); HeLa model of a glycosaminoglycan (GAG) storage disease; KI is knock-in and KO knock-out; SDC1 is syndecan 1; higher = higher mutant VPS33A level;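 note: screen of an FDA-approved drug library, NanoLuc luminescence read after lysing the treated cells, taken as a measure of mutant VPS33A protein stability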

Question: Which relative cell viability [1] does the source give for `COC(=O)[C@H](Cc1ccccc1)NC(=O)[C@@H](N)CC(=O)O` [Aspartame] here?
Answer: 1.15

Question: What about the “relative GAG core protein HA-SDC1 amount per cell number” value [2] of the same compound?
Answer: inactive: 0.728

Question: What about the “relative mutant VPS33A R498W amount” value [3] of the same compound?
Answer: 1.26

Question: With `Cc1ccc(C(=O)C(C)CN2CCCCC2)cc1` (stereo not given) [Tolperisone HCl] as the compound, how does the relative cell viability [1] read?
Answer: 0.983

Question: What about the “relative GAG core protein HA-SDC1 amount per cell number” value [2] of the same compound?
Answer: inactive: 0.568

Question: What about the “relative mutant VPS33A R498W amount” value [3] of the same compound?
Answer: 0.649

Question: Which results are given for `C[C@@H]1O[C@@H](Oc2c(-c3ccc(O)c(O)c3)oc3cc(O)cc(O)c3c2=O)[C@H](O)[C@H](O)[C@H]1O` [Quercitrin]?
Answer: relative cell viability [1]: 1.06; relative GAG core protein HA-SDC1 amount per cell number [2]: inactive: 0.97; relative mutant VPS33A R498W amount [3]: 1.27

Question: `CCOCc1nc2c(N)nc3ccccc3c2n1CC(C)(C)O` [Resiquimod (R-848)] was tested. Which relative cell viability [1] did it give?
Answer: 1.32

Question: And the “relative GAG core protein HA-SDC1 amount per cell number” value [2]?
Answer: inactive: 1.06

Question: And the “relative mutant VPS33A R498W amount” value [3]?
Answer: 0.79

Question: For `CCCCC(=O)N(Cc1ccc(-c2ccccc2-c2nnn[nH]2)cc1)[C@H](C(=O)O)C(C)C` [Valsartan], which relative cell viability [1] is on record?
Answer: 1.02

Question: What about the “relative GAG core protein HA-SDC1 amount per cell number” value [2] of the same compound?
Answer: inactive: 0.855

Question: And the “relative mutant VPS33A R498W amount” value [3]?
Answer: 1.77

Question: Which relative cell viability [1] does the source give for `CNC(=O)c1ccc(N2C(=S)N(c3cnc(C#N)c(C(F)(F)F)c3)C(=O)C23CCC3)cc1F` here?
Answer: 1.38

Question: What about the “relative GAG core protein HA-SDC1 amount per cell number” value [2] of the same compound?
Answer: inactive: 1.49

Question: And the “relative mutant VPS33A R498W amount” value [3]?
Answer: 0.773

Question: What does the source list for `N=C(N)NCCN1CCCCCCC1` [Guanethidine (sulfate)]?
Answer: relative cell viability [1]: 1.14; relative GAG core protein HA-SDC1 amount per cell number [2]: inactive: 0.92; relative mutant VPS33A R498W amount [3]: 0.924

Question: Which relative cell viability [1] does the source give for `Nc1nc(F)nc2c1ncn2[C@@H]1O[C@H](CO)[C@@H](O)[C@@H]1O` [Fludarabine] here?
Answer: 1.05

Question: And the “relative GAG core protein HA-SDC1 amount per cell number” value [2]?
Answer: inactive: 1.04

Question: And the “relative mutant VPS33A R498W amount” value [3]?
Answer: 1.55

Question: Which relative cell viability [1] does the source give for `O=C(O)/C=C/c1ccccc1` [Cinnamic acid] here?
Answer: 1.12

Question: And the “relative GAG core protein HA-SDC1 amount per cell number” value [2]?
Answer: inactive: 0.818

Question: And the “relative mutant VPS33A R498W amount” value [3]?
Answer: 1.22

Question: For `CCCCC(=O)O[C@H]1CC[C@H]2[C@@H]3CCc4cc(O)ccc4[C@H]3CC[C@]12C` [Estradiol valerate], which relative cell viability [1] is on record?
Answer: 1.04

Question: What about the “relative GAG core protein HA-SDC1 amount per cell number” value [2] of the same compound?
Answer: inactive: 1.17

Question: And the “relative mutant VPS33A R498W amount” value [3]?
Answer: 1.24

Question: For `CC1=CC(=O)CC(C)(C)C1(O)/C=C/C(C)=C\C(=O)O` (stereo not given) [Abscisic Acid (Dormin)], which relative cell viability [1] is on record?
Answer: 0.963

Question: And the “relative GAG core protein HA-SDC1 amount per cell number” value [2]?
Answer: inactive: 0.939

Question: And the “relative mutant VPS33A R498W amount” value [3]?
Answer: 1.12

Question: How did the relative cell viability [1] turn out when `Clc1ccc(COC(Cn2ccnc2)c2ccc(Cl)cc2Cl)c(Cl)c1` (stereo not given) [Miconazole] was run?
Answer: 0.962

Question: What about the “relative GAG core protein HA-SDC1 amount per cell number” value [2] of the same compound?
Answer: active: 0.376

Question: And the “relative mutant VPS33A R498W amount” value [3]?
Answer: 0.00333

Question: `N#CC(c1ccc(Cl)cc1)c1c(Cl)cc(-n2ncc(=O)[nH]c2=O)cc1Cl` (stereo not given) [Diclazuril] was tested. Which relative cell viability [1] did it give?
Answer: 1.13

Question: And the “relative GAG core protein HA-SDC1 amount per cell number” value [2]?
Answer: active: 0.364

Question: And the “relative mutant VPS33A R498W amount” value [3]?
Answer: 1.58

Question: Which results are given for `CN(C)CCc1c[nH]c2ccc(CS(=O)(=O)N3CCCC3)cc12` [Almotriptan Malate]?
Answer: relative cell viability [1]: 1.05; relative GAG core protein HA-SDC1 amount per cell number [2]: inactive: 0.896; relative mutant VPS33A R498W amount [3]: 1.37

Question: Which relative cell viability [1] does the source give for `CC[C@H](C)[C@H](N)C1=N[C@H](C(=O)N[C@@H](CC(C)C)C(=O)N[C@H](CCC(=O)O)C(=O)N[C@H](C(=O)N[C@H]2CCCCNC(=O)[C@H](CC(N)=O)NC(=O)[C@@H](CC(=O)O)NC(=O)[C@H](Cc3cnc[nH]3)NC(=O)[C@@H](Cc3ccccc3)NC(=O)[C@H]([C@@H](C)CC)NC(=O)[C@@H](CCCN)NC2=O)[C@@H](C)CC)CS1` [Bacitracin] here?
Answer: 1.12

Question: And the “relative GAG core protein HA-SDC1 amount per cell number” value [2]?
Answer: inactive: 2.06

Question: And the “relative mutant VPS33A R498W amount” value [3]?
Answer: 0.75

Question: How did the relative cell viability [1] turn out when `O=C1c2ccccc2C(=O)C1c1ccccc1` [Phenindione] was run?
Answer: 0.854

Question: What about the “relative GAG core protein HA-SDC1 amount per cell number” value [2] of the same compound?
Answer: inactive: 0.885

Question: And the “relative mutant VPS33A R498W amount” value [3]?
Answer: 1.23

Question: Which relative cell viability [1] does the source give for `CC(C)(C)NC(=O)[C@H]1CC[C@H]2[C@@H]3CC[C@H]4NC(=O)C=C[C@]4(C)[C@H]3CC[C@]12C` [Finasteride] here?
Answer: 1.03

Question: What about the “relative GAG core protein HA-SDC1 amount per cell number” value [2] of the same compound?
Answer: inactive: 1.03

Question: And the “relative mutant VPS33A R498W amount” value [3]?
Answer: 0.859

Question: Which relative cell viability [1] does the source give for `COc1ccccc1N1CCN(CCCNc2cc(=O)n(C)c(=O)n2C)CC1` [Urapidil HCl] here?
Answer: 1

Question: And the “relative GAG core protein HA-SDC1 amount per cell number” value [2]?
Answer: inactive: 1.02

Question: What about the “relative mutant VPS33A R498W amount” value [3] of the same compound?
Answer: 1.48

Question: Which relative cell viability [1] does the source give for `Cc1cc(Nc2cc(N3CCN(C)CC3)nc(Sc3ccc(NC(=O)C4CC4)cc3)n2)n[nH]1` [VX-680 (MK-0457,Tozasertib)] here?
Answer: 1.01

Question: And the “relative GAG core protein HA-SDC1 amount per cell number” value [2]?
Answer: inactive: 0.827

Question: And the “relative mutant VPS33A R498W amount” value [3]?
Answer: 0.514

Question: How did the relative cell viability [1] turn out when `Cc1cccc(O)c1` [m-Cresol] was run?
Answer: 1.01

Question: And the “relative GAG core protein HA-SDC1 amount per cell number” value [2]?
Answer: inactive: 1.06

Question: And the “relative mutant VPS33A R498W amount” value [3]?
Answer: 1.18

Question: Which results are given for `NC(=O)c1ccccc1O` [Salicylamide]?
Answer: relative cell viability [1]: 1.04; relative GAG core protein HA-SDC1 amount per cell number [2]: inactive: 0.863; relative mutant VPS33A R498W amount [3]: 1.11

Question: How did the relative cell viability [1] turn out when `CCCNC(C)C(=O)Nc1ccccc1C` (stereo not given) [Prilocaine] was run?
Answer: 1.04

Question: And the “relative GAG core protein HA-SDC1 amount per cell number” value [2]?
Answer: inactive: 0.84

Question: What about the “relative mutant VPS33A R498W amount” value [3] of the same compound?
Answer: 1.42

Question: Which relative cell viability [1] does the source give for `O=C1Cc2cc(CCN3CCN(c4nsc5ccccc45)CC3)c(Cl)cc2N1` [Ziprasidone hydrochloride monohydrate] here?
Answer: 1.08

Question: And the “relative GAG core protein HA-SDC1 amount per cell number” value [2]?
Answer: inactive: 0.961

Question: And the “relative mutant VPS33A R498W amount” value [3]?
Answer: 1.11

Question: Which relative cell viability [1] does the source give for `NS(=O)(=O)Cc1noc2ccccc12` [Zonisamide] here?
Answer: 0.95

Question: And the “relative GAG core protein HA-SDC1 amount per cell number” value [2]?
Answer: inactive: 1

Question: And the “relative mutant VPS33A R498W amount” value [3]?
Answer: 1.25

Question: Which results are given for `CCCCCOc1ccc(-c2cc(-c3ccc(C(=O)N[C@H]4C[C@@H](O)[C@@H](O)NC(=O)[C@@H]5[C@@H](O)[C@@H](C)CN5C(=O)[C@H]([C@H](O)CC(N)=O)NC(=O)[C@H]([C@H](O)[C@@H](O)c5ccc(O)c(OS(=O)(=O)O)c5)NC(=O)[C@@H]5C[C@@H](O)CN5C(=O)[C@H]([C@@H](C)O)NC4=O)cc3)no2)cc1` [Micafungin sodium]?
Answer: relative cell viability [1]: 1.08; relative GAG core protein HA-SDC1 amount per cell number [2]: inactive: 1.68; relative mutant VPS33A R498W amount [3]: 1.3
